{"source": "PubChem BioAssay AID463173", "about": "(ICCB-Longwood Screening Facility, Harvard Medical School, 2010)", "note": "Hit rate of the full screen: of about 52,000 compounds, about 4,300 (8.3%) were called active. Cut-off read from the data, not from the text of the source: active = survival mostly below about 52% (no sharp cut-off); inactive = mostly above about 56%. Some of the results follow."}
{"tested_on": "DeltatarO mutant", "assay": "growth inhibition of S. aureus wild type versus tarO mutant, primary screen, teichoic acid synthesis inhibitors, RN4220, OD600 (AID 463173)", "conditions": "OD600, 18 h, active compounds read low, screened at 18.75 µg/mL (by protocol)"}
{"smiles": "CC(C)Cn1c(=O)c2ccccc2n2c(CCC(=O)NCc3ccccc3Cl)nnc12", "survival": "inactive: 90%"}
{"smiles": "COc1ccc(CCC(=O)NC2CC(=O)N(c3ccc(C)cc3)C2)cc1", "note": "(configuration not stated)", "survival": "inactive: 95%"}
{"smiles": "COc1ccc2oc(=O)cc(CN3CCN(c4ccc(F)cc4)CC3)c2c1", "survival": "inactive: 61%"}
{"smiles": "CCCCNC(=O)C(CC)Sc1nnc(-c2cccc(F)c2)c(-c2cccc(F)c2)n1", "note": "(configuration not stated)", "survival": "inactive: 79%"}
{"smiles": "Cc1cccc(C(=O)Nc2ccc(-c3nc4ccccc4s3)cc2Cl)c1", "survival": "inactive: 75%"}
{"smiles": "Cc1cc(C)cc(N2CC(c3nc(-c4ccccc4C)no3)CC2=O)c1", "note": "(configuration not stated)", "survival": "inactive: 101%"}
{"smiles": "CC(=O)Nc1c(C)nn(-c2ccccc2)c1N1CCC(C(=O)NCc2ccc(Cl)cc2)CC1", "survival": "inactive: 72%"}
{"smiles": "Cc1nc2c(C(=O)NCCc3ccc(Cl)cc3)cnn2c(C)c1Cc1c(F)cccc1Cl", "survival": "inactive: 75%"}
{"smiles": "CCOC(=O)c1ccc(NC(=O)CN(c2ccc(C)cc2)S(=O)(=O)c2c(C)noc2C)cc1", "survival": "inactive: 101%"}
{"smiles": "Cc1cccc(NC(=O)Cn2c(=O)n(-c3ccccc3Cl)c(=O)c3c(C)c(C(=O)N(C)C)sc32)c1", "survival": "inactive: 87%"}
{"smiles": "CCCCN(CCCC)C(=O)CN(C)S(=O)(=O)c1ccc2c(c1)c(=O)n(C)c(=O)n2C", "survival": "inactive: 132%"}
{"smiles": "CC(Nc1ccc(-c2nc(-c3ccncc3)no2)cc1[N+](=O)[O-])c1ccccc1", "note": "(configuration not stated)", "survival": "active: 42%"}
{"smiles": "O=C(NCc1ccccc1Br)c1ccc2nc(N3CCCCC3)sc2c1", "survival": "inactive: 94%"}
{"smiles": "Cc1sc2c(c1C)c(=O)n(CCc1ccccc1)c(=O)n2Cc1cccc(F)c1", "survival": "active: 16%"}
{"smiles": "COCCNC(=O)Cn1cc(/C=C(\\C#N)C(N)=O)c2ccccc21", "survival": "inactive: 75%"}
{"smiles": "O=C(Nc1cc(F)ccc1F)C1CCN(c2nc3ccccc3n3cccc23)CC1", "survival": "inactive: 66%"}
{"smiles": "Cc1ccc(-c2c(CN3CCN(c4cccc(C)c4)C(C)C3)csc2C)cc1", "note": "(configuration not stated)", "survival": "inactive: 75%"}
{"smiles": "Cc1ccc2onc(CC(=O)N3CCN(c4ccc(F)cc4)CC3)c2c1", "survival": "active: 41%"}
{"smiles": "CC(C)CC(=O)N1c2nc(C(C)C)nn2C2(CCCCC2)[C@@H]2CCCC[C@@H]21", "survival": "inactive: 79%"}
{"smiles": "COc1ccc(CCNC(=O)c2ccc(OC)cc2)cc1", "survival": "inactive: 86%"}
{"smiles": "COc1ccc(C(=O)Nc2ccccc2C(=O)NC(C(=O)O)C(C)C)cc1", "note": "(configuration not stated)", "survival": "inactive: 84%"}
{"smiles": "Cc1ccccc1S(=O)Cc1ccc(C(=O)N2CCN(c3cccc(C)c3C)CC2)o1", "note": "(configuration not stated)", "survival": "inactive: 61%"}
{"smiles": "COc1cc2nc(C3CCC3)n(N)c(=O)c2cc1OC", "survival": "inactive: 75%"}
{"smiles": "COc1ccc(NC(=O)Cn2nnc(C(=O)NCCc3ccccc3)c2N)cc1", "survival": "inactive: 98%"}
{"smiles": "CC(=O)c1cccc(NC(=O)C(C)n2c(=O)cc(C)c3c(C)nn(-c4ccccc4)c32)c1", "note": "(configuration not stated)", "survival": "inactive: 79%"}
{"smiles": "COc1ccc(CCNC(=O)c2ccc(Nc3nc4ccccc4n4nnnc34)cc2)cc1OC", "survival": "inactive: 71%"}
{"smiles": "COc1ccccc1NC(=O)N(Cc1nnc2n1CCCCC2)c1ccc(F)cc1", "survival": "inactive: 91%"}
{"smiles": "COc1ccc(OC)c(CNS(=O)(=O)c2ccc3c(c2)CCCN3C(C)=O)c1", "survival": "inactive: 73%"}
{"smiles": "O=C(NCCc1ccccc1)c1ccc2c(c1)N(Cc1ccc(F)cc1)C(=O)c1ccccc1S2(=O)=O", "survival": "inactive: 97%"}
{"smiles": "O=C(CN(C(=O)C1CSC(=O)C1)c1ccccc1F)NC1CCCC1", "note": "(configuration not stated)", "survival": "inactive: 95%"}
{"smiles": "Cc1cccc(N(CC(O)Cn2c3ccccc3c3ccccc32)S(=O)(=O)c2ccc(F)cc2)c1", "note": "(configuration not stated)", "survival": "inactive: 58%"}
{"smiles": "CC(C)c1ccc(NC(=O)c2cc3sc(Cl)cc3n2C)cc1", "survival": "inactive: 142%"}
{"smiles": "Cc1c(Cl)cccc1NC(=O)CSc1ncc2c(n1)-c1ccccc1N(C)S2(=O)=O", "survival": "inactive: 102%"}
{"smiles": "CN(CCCNC(=O)c1cc2c(Cl)nc3ccccc3c2s1)Cc1ccccc1", "survival": "inactive: 55%"}
{"smiles": "CCN(CC)CCNC(=O)c1c(C)oc2ncnc(N3CCOCC3)c12", "survival": "inactive: 130%"}
{"smiles": "Cc1cccc(C)c1OCC(=O)Nc1ncn[nH]1", "survival": "inactive: 62%"}
{"smiles": "CCOc1ccc(CCNC(=O)c2cnc3sc(N(CC)CC)nn3c2=O)cc1OCC", "survival": "inactive: 122%"}
{"smiles": "Cc1cc(C)c(NC(=O)Cn2cc(S(=O)(=O)Cc3ccccc3F)c3ccccc32)c(C)c1", "survival": "inactive: 71%"}
{"smiles": "COc1ccc(CCn2c(=O)c3cccnc3n(CC(=O)Nc3ccc(C)c(F)c3)c2=O)cc1OC", "survival": "inactive: 70%"}
{"smiles": "C=Cc1ccc(Cn2c(C(=O)O)c(CNC3CCCCC3)c3ccc(C)cc32)cc1", "survival": "inactive: 88%"}
{"smiles": "CCC(C)C(NC(=O)c1cc(C)oc1C)C(=O)O", "note": "(configuration not stated)", "survival": "inactive: 95%"}
{"smiles": "COc1ccc(-c2nnc(SCC(=O)Nc3cccc(C(F)(F)F)c3)nc2-c2ccc(OC)cc2)cc1", "survival": "inactive: 87%"}
{"smiles": "CC(C)NC(=O)Cn1cnc2c1c(=O)n(C)c(=O)n2C", "survival": "inactive: 84%"}
{"smiles": "Cc1cc(C)cc(NC(=O)N2CCC3(CC2)Oc2ccccc2C(=O)N3Cc2ccccc2F)c1", "survival": "inactive: 57%"}
{"smiles": "NC(=O)c1ccc(-c2ccccc2)cc1C(N)=O", "survival": "active: 66%"}
{"smiles": "O=C(CCS(=O)(=O)c1cccc2nonc12)Nc1c(F)cccc1F", "survival": "inactive: 76%"}
{"smiles": "CC1CCc2c(sc3nc(-c4cc5cc(Br)ccc5oc4=O)[nH]c(=O)c23)C1", "note": "(configuration not stated)", "survival": "inactive: 74%"}
{"smiles": "N#CC(C#N)=Cc1cn(Cc2ccccc2)c2ccccc12", "survival": "inactive: 96%"}
{"smiles": "CCCn1c(-c2ccc(F)cc2)cnc1SCC(=O)N1CCCCC1C", "note": "(configuration not stated)", "survival": "inactive: 74%"}
{"smiles": "CCOc1ccc(NC(=O)c2c(NCc3cccnc3)sc3c2CCCC3)cc1", "survival": "inactive: 124%"}
{"smiles": "CCN(CC)S(=O)(=O)c1ccc(S(=O)(=O)NCc2ccc3c(c2)OCO3)cc1", "survival": "inactive: 87%"}
{"smiles": "COc1cccc(N2CCN(C(=O)c3cccc(-n4c(C)nc5cccnc54)c3)CC2)c1", "survival": "inactive: 80%"}
{"smiles": "O=S(=O)(Nc1ccc(Br)cc1F)c1ccc2nc(-c3ccccc3)[nH]c2c1", "survival": "inactive: 72%"}
{"smiles": "Cc1cc(N2CC34C=CC(O3)C(C(=O)O)C4C2=O)no1", "note": "(configuration not stated)", "survival": "inactive: 95%"}
{"smiles": "O=S(=O)(NCC(c1cccs1)S(=O)(=O)c1ccccc1)c1ccc(F)cc1", "note": "(configuration not stated)", "survival": "active: 46%"}
{"smiles": "CCOc1ccccc1CNC(=O)c1cc(-c2ccc(Cl)s2)nc2ccccc12", "survival": "inactive: 77%"}
{"smiles": "CCOC(=O)c1ccc(NC(=O)C2CCN(S(=O)(=O)c3ccc4c(c3)CCCC(=O)N4)CC2)cc1", "survival": "inactive: 80%"}
